# Hit rate of the full screen: of about 45,000 compounds, about 200 (0.44%) were called active. Not shown: some 7% with an inconclusive outcome. Calls follow the shape of the dose curve; as a rule, active = well fitted activation curve with a large enough effect; inconclusive = small, poorly fitted or top-dose-only effect; inactive = no such curve, though single readings can be large or run the other way. This is one part of the list.
# Experiment: qHTS of TDP-43 Inhibitors: NCGC Sytravon Library Screen; also: 0% is about no effect; nearly all actives have a fitted effect of over 55% in size
# Settings: yeast TDP-43 toxicity rescue, BacTiter-Glo growth, 24 h; series mostly up to 46.1 µM; growth rescue (activation): at the top concentration
# Procedure, shortened: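 TDP-43-expressing yeast, pregrown in raffinose, seeded at OD600 0.02 in galactose medium with compound for 24 hr at 30 deg C. Growth read by BacTiter-Glo luminescence, so rescue of toxicity appears as activation.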
row,Compound,growth rescue (activation)
1,O=C(COC(=O)c1ccc(Br)cc1)NC1CCCC1,inactive: 1.15%
2,Cc1ccc(/C=N/Nc2ccc(C(=O)O)cc2)o1,inactive: -0.423%
3,COc1ccccc1NC(=O)CCC(=O)c1ccc(-c2ccccc2)cc1,inactive: -2.13%
4,COc1cccc(CC(NC(C)=O)C(=O)NC2CCN(S(=O)(=O)c3ccc(F)cc3)CC2)c1OC (stereo unspecified),inactive: 8.65%
5,CC(=O)Nc1cc(C(=O)NCc2ccco2)ccc1Sc1ccc(C)cc1,inactive: -29.7%
6,CCc1nnc(SCc2cccc(Cl)c2)c2cc3sccc3n12,inactive: 2.34%
7,COc1cc(C2C(C#N)=C(N)Oc3c2ccc2ccccc32)ccc1OCC(=O)Nc1ccc(C)cc1 (stereo unspecified),inactive: 10.9%
8,C=CC[n+]1c(-c2ccc(Cl)cc2Cl)csc1Nc1ccc(NC(C)=O)cc1,inactive: -41.3%
9,CCCC(=O)Nc1cccc(NC(=S)NC(=O)C(C)Oc2ccc(Cl)cc2Cl)c1 (stereo unspecified),inactive: 27%
10,COc1ccc(C(C)(C)C)cc1S(=O)(=O)n1ccnc1C,inactive: 29.9%
11,CNC(=O)CSc1nnc(-c2ccc3c(c2)OCO3)n1C,inactive: -7.68%
12,O=C(c1cccs1)N(Cc1cc2ccccc2[nH]c1=O)CC1CCCO1 (stereo unspecified),inactive: -0.588%
13,COc1ccc(N2CCN(C(=O)[C@H](C)NC(=O)c3ccccc3Cl)CC2)cc1,inactive: -7.34%
14,Cc1nc2sc(C(c3cccc(F)c3)N3CC(C)OC(C)C3)c(O)n2n1 (stereo unspecified),inactive: 23.8%
15,O=C1c2cccc3c(O)ccc(c23)C(=O)N1c1ccc(Cl)cc1,inactive: -27.1%
16,O=C(Nc1ccccc1)N(CCN1CCOCC1)Cc1ccccc1F,inactive: 6.55%
17,COc1ccc2c(c1OC)C(=O)N1c3ccccc3C(=O)N(c3ccc(F)cc3)C21 (stereo unspecified),inactive: 13.6%
18,OCCC1CN(Cc2ccc(C(F)(F)F)cc2)CCN1Cc1ccccc1 (stereo unspecified),inactive: 12.5%
19,CC1(C(=O)O)CCCN1C(=O)c1ccccc1OC(F)(F)F (stereo unspecified),inactive: -0.661%
20,C[C@]12CC[C@H](O)CC1=CCC1C2CC[C@@]2(C)C1CC[C@@H]2NC(=O)[C@@H](N)Cc1cnc[nH]1 (stereo partly specified),inactive: -11.8%
21,O=C(NCc1cccs1)c1csc([C@@H]2C[C@H](O)[C@@H](CO)O2)n1,inactive: 0.917%
22,Cc1[nH]nc(SCC(=O)N2CCOCC2)c1[N+](=O)[O-],inactive: -12.2%

row,Compound,growth rescue (activation)
1,CC(N)c1csc(NC(=O)Nc2cccc(C(F)(F)F)c2)n1 (stereo unspecified),inactive: 2.26%
2,CC(=O)N1CCC(N(CCN2CCOCC2)C(=S)Nc2ccccc2C)CC1,inactive: 7.77%
3,O=C(Nc1cccc(C(F)(F)F)c1)c1ccc2sc([C@H]3C[C@H](O)[C@@H](CO)O3)nc2c1,inactive: 4.38%
4,CCN(CC)c1ccc(/C=N/NC(=O)c2ccccn2)cc1,inactive: 7.82%
5,COc1ccc(-c2[nH]ncc2-c2cscn2)c(O)c1,inactive: -6.61%
6,CCn1cnc2c1c(=O)n(Cc1cccc([N+](=O)[O-])c1)c(=O)n2Cc1ccccc1,inactive: 26.9%
7,COc1ccc2nc(SCC(=O)NC3CCCc4ccccc43)[nH]c2c1 (stereo unspecified),inactive: 21.4%
8,CNc1c(NC(=O)C2CCC(C)CC2)c(=O)oc2ccccc12 (stereo unspecified),inactive: 5.33%
9,Cc1cc(OC(C)C(=O)Nc2cccnc2)ccc1Cl (stereo unspecified),inactive: 4.9%
10,O=C(COC(=O)COc1ccc(Cl)cc1)NC1CCCCCC1,inactive: 18.1%
11,Cc1cccc(NC(=O)COc2ccc(Br)cc2/C=N/O)c1,inactive: -29%
12,COc1ccc(OC)c(/C(C)=N/Nc2ccc(C(=O)O)cc2)c1,inactive: 16.7%
13,O=C(NCCc1ccc(O)cc1)c1ccc(Cl)cc1,inactive: 10%
14,Oc1c(Br)cc(Br)c(/C=N/n2c(-c3ccccc3)n[nH]c2=S)c1Br,inactive: -91.4%
15,O=C(N[C@@H](Cc1ccccc1)C(=O)NCCc1c[nH]c2ccccc12)c1ccco1,inactive: -0.256%
16,COc1ccc(-c2nc(-c3cccc([N+](=O)[O-])c3O)cc(=O)o2)cc1OC,inactive: -1.89%
17,Cc1ccc(NC(=O)CN2C(=O)c3cccnc3Sc3ccccc32)c(Br)c1,inactive: 29.2%
18,COc1ccc2c(c1)-c1nc(NC(=O)c3cccc(Br)c3)sc1CC2,inactive: 15%
19,CCOC(=O)C1CCCN(C(=O)c2ccc(N(C)C)cc2)CC1 (stereo unspecified),inactive: 10.3%
20,N=C1SC(c2ccccc2)C(=O)N1c1ncc(Cc2ccccc2)s1 (stereo unspecified),inactive: 13%
21,Cc1sc2ncnc(SCC(=O)N3c4ccccc4Sc4ccc(Cl)cc43)c2c1C,inactive: 16.7%
22,Oc1ccc(/C=N/n2c(COc3ccccc3)n[nH]c2=S)cc1O,inactive: 7.65%

row,Compound,growth rescue (activation)
1,COc1ccc2c(c1)c(=O)oc1c(C)c(OCc3cc(C(=O)O)oc3C)ccc12,inactive: 1.72%
2,COc1ccc(C(=O)N2CCC(C(=O)Nc3ccc(C)cc3)CC2)cc1,inactive: 5.47%
3,CC(=O)N1CCN(c2ccc(NC(=O)C(c3ccccc3)c3ccccc3)cc2)CC1,inactive: 10%
4,CCOC(=O)CN1C(=O)CN(c2ccc(C)c(C)c2)C1=O,inactive: 7.65%
5,COc1ccc(-n2nc(C(=O)NCC(=O)N3CCN(c4cccc(Cl)c4)CC3)c3ccccc3c2=O)c(OC)c1,inactive: 11.1%
6,O=C(Nc1ccc(F)cc1)Nc1cccnc1Cl,inactive: 12.6%
7,COc1ccc(-c2cnc3c(NC=O)cc(-c4ccccc4)cn23)cc1OC,inactive: 5.37%
8,Cc1ccc(C(=O)O)cc1NS(=O)(=O)c1ccc2c(c1)oc(=O)n2C,inactive: 7.05%
9,CCOC(=O)Cn1c(=O)c2c(nc3n2CCCCN3c2ccc(OCC)cc2)n(C)c1=O,inactive: 15.9%
10,CSCC[C@H](NC(=O)OC(C)(C)C)C(=O)N/N=C/c1cc2ccc(C)cc2nc1Cl,inactive: 5.84%
11,COc1ccc(N2Cc3ccccc3C2=NC(=O)c2ccc(C)cc2)cc1OC,inactive: 1.21%
12,O=C(O)c1cc(C(=O)O)cc(-c2ccc(/C=c3/sc4nc5ccccc5n4c3=O)o2)c1,inactive: 5.23%
13,CCNC(=S)Nc1cc(OC)c(NC(=O)c2ccco2)cc1OC,inactive: 5.04%
14,Nc1nc(-c2ccccc2)c(N=Nc2ccc(Cl)cc2)s1,inactive: -3.57%
15,O=C(O)CN1C(c2ccccc2O)Nc2ccc(Br)cc2C1c1ccccc1 (stereo unspecified),inactive: 2.23%
16,NNC(=S)NCc1ccc2c(c1)OCO2,inactive: 7.75%
17,COc1cc(NC(=O)c2cnc(NCc3ccccc3)nc2C)cc(OC)c1OC,inactive: -3.72%
18,COc1ccc(CNC(=O)N2CCc3nc(Nc4cc(OC)c(OC)c(OC)c4)ncc3C2)cc1,inactive: 14.3%
19,CCOC(=O)Cc1csc(SCc2cc(=O)oc3cc(O)ccc23)n1,inactive: 2.23%
20,CN(CC(=O)Nc1ccccc1Cl)C(=O)c1cc(=O)[nH]c2ccccc12,inactive: -1.27%
21,Cc1cc(-c2nn(C)c(=O)c3ccccc23)ccc1CNC(=O)NC1CCCCC1,inactive: -4.37%
22,CN(C)S(=O)(=O)c1cccc(NC(=O)COC(=O)c2cc(-c3cccc(Br)c3)nc3ccccc23)c1,inactive: 17.2%

# Source: PubChem BioAssay AID1347073 (National Center for Advancing Translational Sciences (NCATS), 2019)
